According to PubChem BioAssay AID1347073 (National Center for Advancing Translational Sciences (NCATS), 2019):
In all, about 45,000 compounds went through this assay and about 200 (0.44%) were called active. Inconclusive results (about 7%) are left out. Calls come from the whole dose curve; as a rule, active = well fitted activation curve with a large enough effect; inconclusive = small, poorly fitted or top-dose-only effect; inactive = no such curve, though single readings can be large or run the other way. Some of the results follow.

Assay: qHTS of TDP-43 Inhibitors: NCGC Sytravon Library Screen; note: 0% is about no effect; nearly all actives have a fitted effect of over 55% in size
Conditions: yeast TDP-43 toxicity rescue, BacTiter-Glo growth, 24 h; series mostly up to 46.1 µM; growth rescue (activation): at the top concentration
How it was run: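 TDP-43-expressing yeast, pregrown in raffinose, seeded at OD600 0.02 in galactose medium with compound for 24 hr at 30 deg C. Growth read by BacTiter-Glo luminescence, so rescue of toxicity appears as activation.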

SMILES	growth rescue (activation)
CC(C)CC(OC(=O)c1ccco1)C(=O)NC1CCCC1 (centres undefined)	inactive: -4.63%
O=C(Nc1cccc(S(=O)(=O)NCc2ccco2)c1)c1cc(-c2ccc(F)cc2)nc2ccccc12	inactive: 13.5%
CC(C)CNC(=O)c1cccc2c(-c3cccnc3)coc12	inactive: 0.909%
O=[N+]([O-])C(=C1SCCS1)C(=C(Cl)Cl)N1CCCCC1	inactive: 39.5%
Fc1cccc(/C=N/Nc2ccc3ccccc3n2)c1	inactive: 22.6%
Cc1ccc(CN2CCSc3ccc(C(=O)NCc4ccc(OC(C)C)cc4)cc32)cc1	inactive: 9%
COc1ccccc1-c1c(C)nn2c(-c3ccccc3)cc(-c3ccccc3)nc12	inactive: 5.38%
O=C(COC(=O)CCc1ccccc1)Nc1ccc(F)cc1Cl	inactive: -4.3%
COc1cc2c(cc1OC)CN(Cc1cc(OC)c3c(c1)OCO3)CC2	inactive: 2.72%
Cn1c(NCCc2ccncc2)nc2cc(-c3ccccc3)sc2c1=O	inactive: 1.66%
O=C(CSc1ncnc2scc(-c3ccccc3)c12)NC1CCS(=O)(=O)C1 (centres undefined)	inactive: 12.5%
COc1ccccc1NC(=O)Cc1noc(CSc2n[nH]c(N)n2)n1	inactive: 4.99%
CC(NC(=O)C(=O)NCCN1CCN(C(=O)c2ccc([N+](=O)[O-])cc2)CC1)c1ccccc1 (centres undefined)	inactive: 8.52%
CC(=O)c1cccc(NC(=O)COC(=O)c2cccc(N3C(=O)c4ccccc4C3=O)c2)c1	inactive: 1.38%
COc1ccc(CC(N)c2csc(Nc3cnccn3)n2)cc1 (centres undefined)	inactive: -0.619%
CC1(C(=O)NS(=O)(=O)Cc2ccccc2)CCN1C(=O)Cc1ccccc1 (centres undefined)	inactive: 13.6%
COc1ccc(CNC(=O)COC(=O)CC2CC3CCC2C3)cc1OC (centres undefined)	inactive: -3.27%
CCOC(=O)c1c(-c2ccccc2)csc1NC(=O)/C(C#N)=C\c1ccc(O)c(OC)c1	inactive: 21.1%
Cc1cc(C(=O)NNC(=O)COc2ccccc2Cl)n[nH]1	inactive: 3.8%
Cc1ccsc1/C=N/N1CCN(c2ccccn2)CC1	inactive: 3.93%
COc1cc(/C=N/NS(=O)(=O)c2ccc(C)cc2)ccc1OCc1cccc(C(=O)O)c1	inactive: 7.13%
CCCNC(=O)C1(C)CCCN(C/C=C/c2ccccc2)C1 (centres undefined)	inactive: -1.13%
O=C(COC(=O)c1ccccc1)Nc1ncc([N+](=O)[O-])s1	inactive: 2.63%
Cc1cc(C)c(NC(=O)CN2C(=O)NC(Cc3ccccc3)C2=O)c(C)c1 (centres undefined)	inactive: 0.277%
C/C(N)=C(/C#N)C(=O)CSc1nc2ccccc2c(=O)n1Cc1ccc(C)cc1	inactive: 11.5%
CCOc1ccc(Oc2c(/C=N/NC(=O)C3CC3)c(C)nn2-c2ccccc2)cc1	inactive: 17.4%
CCCCN1CCCCC1(C)C(=O)NCc1cccs1 (centres undefined)	inactive: 7.64%

SMILES	growth rescue (activation)
Cc1cccc(NC(=O)CSc2cn[nH]n2)c1	inactive: 9.33%
O=C(c1cccs1)c1cn(CCOc2ccc(Cl)cc2)c2ccccc12	inactive: -4.83%
COc1cc(NC(=S)NCc2ccco2)c(OC)cc1Cl	inactive: 6.87%
O=C(C1CCN(Cc2ccc(F)cc2)CC1)N1CCN(C/C=C/c2ccccc2)CC1	inactive: -20.8%
O=C(CN1C(=O)NC2(CCCc3ccccc32)C1=O)c1ccc(F)c(F)c1 (centres undefined)	inactive: 31.3%
O=C(CN(Cc1ccco1)C(=O)CNS(=O)(=O)c1ccc(F)cc1)NCc1ccccc1	inactive: -4.39%
COc1ccc(/C(C)=N\NC(=O)CSc2nnc(C)s2)cc1	inactive: -5.96%
Cc1ccc(NC(=O)c2ccccc2[N+](=O)[O-])nc1	inactive: 16.2%
Cc1ccc(CNC(=O)c2ccccc2SCC(=O)NCC2CCCCC2)cc1	inactive: 9.99%
Cc1noc(C)c1COc1ccc(C(=O)OC(C)C(=O)Nc2ccc(S(=O)(=O)N3CCOCC3)cc2)cc1 (centres undefined)	inactive: 24.9%
Cc1ccc(C)n1-c1ccc(-c2nnc3n2CCCCC3)s1	inactive: -3.42%
COc1cccc2cc(-c3csc(NC(=O)CCC(=O)NCCCN4CCC(C)CC4)n3)c(=O)oc12	inactive: 4.93%
CCOCCCNC(=O)C1CC(=O)N(CCc2ccc(C)cc2)C1 (centres undefined)	inactive: -0.172%
CCOc1ccccc1NC(=S)N(CCN(C)C)C(C)c1ccncc1 (centres undefined)	inactive: 1.67%
COC(C(=O)Nc1cc([N+](=O)[O-])ccc1C)c1ccccc1 (centres undefined)	inactive: 4.99%
O=C(O)c1cc(S(=O)(=O)NCCOc2ccccc2)ccc1Cl	inactive: 24.7%
CCCn1cc2c(c1-c1ccc(C)cc1)c(=O)n(C)c(=O)n2C	inactive: -2.32%
Cc1ccc(CNc2nc3ccc(Cl)cc3n3cnnc23)cc1	inactive: 14.9%
COc1ccc(C(=O)C2CCCN(Cc3cn[nH]c3-c3ccccc3)C2)cc1OC (centres undefined)	inactive: 13.5%
CC(C)C(=O)Nc1cc(S(=O)(=O)N2CCOCC2)ccc1N1CCCCC1	inactive: 16.8%
Cc1onc(NC(=O)c2ccc(Cl)cc2Cl)c1Br	inactive: 13.6%
COc1ccc(NC(=O)C2(C)CCN2C(=O)Cc2ccccc2)cc1OC (centres undefined)	inactive: 10.8%
NS(=O)(=O)c1ccc(CCNc2nn3c(-c4ccc(F)c(Cl)c4)cnc3s2)cc1	inactive: 9.13%
CC1(C(=O)NS(=O)(=O)c2cccc(C#N)c2)CCN1C(=O)CCc1ccccc1 (centres undefined)	inactive: 9.07%
COc1cccc(OCC(=O)Nc2ccccc2NC(C)=O)c1	inactive: 9.65%
COc1cc(C)c(C)cc1S(=O)(=O)n1c(C)nc2ccccc21	inactive: 2.62%
O=C(Nc1ccc2c(c1)OCCO2)Nc1ccc2c(c1)OCO2	inactive: 9.09%
